{"source": "paper PMC4336329", "about": "(PLoS ONE, 2015)", "note": "Screen size: about 310,000 compounds; about 14,000 (4.5%) showed an effect of 50% or more. Effects have a minus sign here. This is one part of the list.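 Further: peak tail current of the secondary pulse compared with the same well before compound.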", "data": [{"target": "human ether-à-go-go-related gene (hERG) potassium channel (human, UniProt Q12809)", "sequence (Q12809 whole entry, looked up)": "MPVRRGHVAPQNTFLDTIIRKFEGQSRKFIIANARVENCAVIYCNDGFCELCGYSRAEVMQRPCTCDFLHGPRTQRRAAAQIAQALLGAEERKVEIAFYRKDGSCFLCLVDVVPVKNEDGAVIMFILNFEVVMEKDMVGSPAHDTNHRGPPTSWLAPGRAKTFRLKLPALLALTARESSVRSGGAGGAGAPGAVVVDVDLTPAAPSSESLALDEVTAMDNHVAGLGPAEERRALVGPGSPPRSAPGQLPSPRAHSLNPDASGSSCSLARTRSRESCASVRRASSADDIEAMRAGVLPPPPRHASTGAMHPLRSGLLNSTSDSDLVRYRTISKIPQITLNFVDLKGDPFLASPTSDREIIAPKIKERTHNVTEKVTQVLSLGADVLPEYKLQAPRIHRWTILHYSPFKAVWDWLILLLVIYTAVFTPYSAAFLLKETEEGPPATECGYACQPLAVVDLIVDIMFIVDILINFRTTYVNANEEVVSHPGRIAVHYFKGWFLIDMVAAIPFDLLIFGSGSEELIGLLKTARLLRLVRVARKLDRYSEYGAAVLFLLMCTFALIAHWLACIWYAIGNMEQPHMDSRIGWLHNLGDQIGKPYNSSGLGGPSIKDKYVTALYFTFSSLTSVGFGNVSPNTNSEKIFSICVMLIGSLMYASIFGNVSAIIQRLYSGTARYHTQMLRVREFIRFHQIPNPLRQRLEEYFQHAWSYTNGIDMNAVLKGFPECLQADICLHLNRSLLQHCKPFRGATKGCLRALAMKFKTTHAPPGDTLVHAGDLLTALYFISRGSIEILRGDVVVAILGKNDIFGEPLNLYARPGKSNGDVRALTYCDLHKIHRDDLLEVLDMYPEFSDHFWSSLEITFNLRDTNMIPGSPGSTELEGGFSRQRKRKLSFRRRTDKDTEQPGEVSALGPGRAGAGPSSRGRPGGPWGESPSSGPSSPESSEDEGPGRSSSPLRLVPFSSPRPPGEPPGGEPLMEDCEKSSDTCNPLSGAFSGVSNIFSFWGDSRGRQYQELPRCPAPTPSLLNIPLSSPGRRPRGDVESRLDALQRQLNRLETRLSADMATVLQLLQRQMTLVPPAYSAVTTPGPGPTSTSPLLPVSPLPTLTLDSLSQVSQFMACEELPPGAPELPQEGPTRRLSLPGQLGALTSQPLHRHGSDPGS", "assay": "primary screen, population patch clamp on CHO cells stably expressing hERG", "units": {"hERG current change (%, negative = inhibition) at 10uM": "%"}, "values": [{"smiles": "CN(C)S(=O)(=O)c1ccc(C(=O)Nc2cc(=O)n(C)c(=O)n2C)cc1", "hERG current change (%, negative = inhibition) at 10uM": 23.9}, {"smiles": "Cc1ccc(/C=C/C(=O)NN2CCN(C)CC2)cc1", "hERG current change (%, negative = inhibition) at 10uM": 10.3}, {"smiles": "CCOC(=O)C1CCN(S(=O)(=O)c2ccc(NC(=O)OC)cc2)CC1", "hERG current change (%, negative = inhibition) at 10uM": -56.5}, {"smiles": "CCCC1C(=O)Nc2ccccc2N1C(=O)c1cccc(C)c1", "note": "(stereo not drawn)", "hERG current change (%, negative = inhibition) at 10uM": 2.13}, {"smiles": "COc1ccc(N2CCN(C(=O)Cc3coc4cc(C)ccc34)CC2)cc1", "hERG current change (%, negative = inhibition) at 10uM": 9.02}, {"smiles": "CC1=C(C(=O)OC(C)C)C(C)NC(=O)N1", "note": "(stereo not drawn)", "hERG current change (%, negative = inhibition) at 10uM": -24}, {"smiles": "C=C(C)C1CC=C(C)/C(=N/NC(=O)COc2ccc(Cl)cc2)C1", "note": "(stereo not drawn)", "hERG current change (%, negative = inhibition) at 10uM": 13}, {"smiles": "CCOc1ccc2ccccc2c1/C=N/NC(=O)CNC(=O)c1ccccc1F", "hERG current change (%, negative = inhibition) at 10uM": 6.21}, {"smiles": "O=C(O)c1ccccc1C(=O)c1ccc(N2CCOCC2)c([N+](=O)[O-])c1", "hERG current change (%, negative = inhibition) at 10uM": 8.12}, {"smiles": "O=C1COc2ccc(-c3csc(NCCc4ccccc4)n3)cc2N1", "hERG current change (%, negative = inhibition) at 10uM": 0.389}, {"smiles": "COc1cc(C(=S)N2CCCC2)cc(OC)c1OS(=O)(=O)c1ccc(NC(C)=O)cc1", "hERG current change (%, negative = inhibition) at 10uM": 3.19}, {"smiles": "Cn1c(-c2ccccc2)cnc1NCc1ccccc1", "hERG current change (%, negative = inhibition) at 10uM": -21.3}, {"smiles": "COc1ccc(C(=O)Nc2ccc3nc(C)c(C)nc3c2)cc1", "hERG current change (%, negative = inhibition) at 10uM": 2.32}, {"smiles": "CN(CC(=O)N1CCCCCC1)S(=O)(=O)c1ccc(F)cc1", "hERG current change (%, negative = inhibition) at 10uM": 7.32}, {"smiles": "Cc1ccc(C(=O)C(OC(=O)COc2ccccc2C)c2ccccc2)cc1", "note": "(stereo not drawn)", "hERG current change (%, negative = inhibition) at 10uM": -0.792}, {"smiles": "O=C(NNC(=S)Nc1ccccc1)c1cccnc1", "hERG current change (%, negative = inhibition) at 10uM": 15.9}, {"smiles": "O=C(Nc1nnc(C2CCCCC2)s1)c1cccs1", "hERG current change (%, negative = inhibition) at 10uM": 17.9}, {"smiles": "O=C1C2C(c3ccccc3)C=CC(c3ccccc3)C2C(=O)N1CCCO", "note": "(stereo not drawn)", "hERG current change (%, negative = inhibition) at 10uM": -7.56}, {"smiles": "Cc1ccc(NC(=O)COC(=O)C2CC2)cc1Cl", "hERG current change (%, negative = inhibition) at 10uM": 2.83}, {"smiles": "CCOc1ccc(CNC(=O)C2CCN(c3nn4c(=O)cc(C)nc4s3)CC2)cc1", "hERG current change (%, negative = inhibition) at 10uM": -45.8}, {"smiles": "COc1ccc(N/C(N)=N/c2nc(CSc3ccc(Cl)cc3)cc(=O)[nH]2)cc1", "hERG current change (%, negative = inhibition) at 10uM": 17.5}, {"smiles": "CCOC(=O)c1[nH]c(C)c(C(=O)N2CCN(c3cccc(Cl)c3)CC2)c1C", "hERG current change (%, negative = inhibition) at 10uM": -13.8}, {"smiles": "Cc1ccc(-c2nnn(CC(=O)N(CC(=O)NC3CCCCC3)c3cnc4ccccc4c3)n2)o1", "hERG current change (%, negative = inhibition) at 10uM": -25.5}, {"smiles": "COc1ccc(S(=O)(=O)Nc2ccc(C(F)(F)F)cc2)cc1OC", "hERG current change (%, negative = inhibition) at 10uM": -12.4}, {"smiles": "Cl.O=S(=O)(c1ccc2ccccc2c1)N1CCN(CCO)CC1", "hERG current change (%, negative = inhibition) at 10uM": 23.5}, {"smiles": "c1ccc(Cn2nnnc2C(c2ccccn2)N2CCOCC2)cc1", "note": "(stereo not drawn)", "hERG current change (%, negative = inhibition) at 10uM": 13.6}, {"smiles": "CSCC[C@H](NC(=O)OC(C)(C)C)C(=O)N/N=C/c1cccc2cccnc12", "hERG current change (%, negative = inhibition) at 10uM": -28}, {"smiles": "CC1CCCCC1NC(=O)CCNS(=O)(=O)c1cc(Br)cnc1N", "note": "(stereo not drawn)", "hERG current change (%, negative = inhibition) at 10uM": 7.41}, {"smiles": "Cl.c1ccc(-n2ncc3c(NCCN4CCCCC4)ncnc32)cc1", "hERG current change (%, negative = inhibition) at 10uM": -15.7}, {"smiles": "Cc1cc(CNCc2c(C(=O)N3CCCCCCC3)nc3ccc(Cl)cn23)nn1C", "hERG current change (%, negative = inhibition) at 10uM": -18.7}, {"smiles": "COc1ccccc1OCc1ccc(C(=O)N2CCN3CCCC3C2)cc1", "note": "(stereo not drawn)", "hERG current change (%, negative = inhibition) at 10uM": -9.75}, {"smiles": "CCSc1nnc(NC(=O)CSC2=NCCS2)s1", "hERG current change (%, negative = inhibition) at 10uM": 12.4}, {"smiles": "Cn1c(O)c(/C=C2\\C=Nc3ccc(Br)cc32)c(=O)n(C)c1=O", "hERG current change (%, negative = inhibition) at 10uM": -5.57}, {"smiles": "COc1ccc(N2C(=O)C3CCCN3C2c2ccc(C)o2)cc1", "note": "(stereo not drawn)", "hERG current change (%, negative = inhibition) at 10uM": 0.588}, {"smiles": "CC(C)(C)OC(=O)NCCCC[C@H](NC(=O)c1[nH]cnc1C(=O)Nc1ccc(Cl)cc1)C(=O)OC(C)(C)C", "hERG current change (%, negative = inhibition) at 10uM": 22.1}, {"smiles": "O=C1CCCN1c1ccc(C(=O)N(Cc2nnc(-c3ccccc3Cl)o2)C2CC2)cc1", "hERG current change (%, negative = inhibition) at 10uM": -6.33}, {"smiles": "CC(=O)c1ccccc1NC(=O)Cn1c(=O)cnc2ccccc21", "hERG current change (%, negative = inhibition) at 10uM": 14.6}, {"smiles": "CCOC(=O)c1c(NS(=O)(=O)c2cccc(OC)c2)sc2c1CCC2", "hERG current change (%, negative = inhibition) at 10uM": -11.5}, {"smiles": "COc1cccc(CN2CCC(Oc3ccc(C(=O)N4CCCCC4)cc3)CC2)c1", "hERG current change (%, negative = inhibition) at 10uM": -25.3}, {"smiles": "O=C(Nc1nnc(-c2ccccc2F)s1)C1CCN(S(=O)(=O)c2ccc(Cl)cc2)CC1", "hERG current change (%, negative = inhibition) at 10uM": 13.7}, {"smiles": "CCN(CC)S(=O)(=O)c1cc(NC(=O)COC(=O)CCC(=O)c2cccs2)ccc1C", "hERG current change (%, negative = inhibition) at 10uM": -12.1}, {"smiles": "O=C(CN1CCCCC1)c1c[nH]c2ccccc12", "hERG current change (%, negative = inhibition) at 10uM": -0.455}, {"smiles": "COc1ccccc1NC(=S)N(Cc1ccco1)Cc1cc2ccc(C)c(C)c2[nH]c1=O", "hERG current change (%, negative = inhibition) at 10uM": -8.05}, {"smiles": "CCCCSc1nnc2c(n1)[nH]c1ccccc12", "hERG current change (%, negative = inhibition) at 10uM": -3.38}, {"smiles": "O=C(c1ccc(F)cc1)N(C(=O)c1ccc(F)cc1)c1ncccn1", "hERG current change (%, negative = inhibition) at 10uM": -6.74}, {"smiles": "CN(CCO)C(=O)C(c1ccccc1)c1ccccc1", "hERG current change (%, negative = inhibition) at 10uM": 7.97}, {"smiles": "O=C(O)c1ccc(/C=C2\\SC(=S)N(NC(=O)c3ccccc3)C2=O)cc1", "hERG current change (%, negative = inhibition) at 10uM": 10.4}, {"smiles": "Cn1nccc1C(=O)Nc1ccc(Cl)cc1", "hERG current change (%, negative = inhibition) at 10uM": 5.9}, {"smiles": "Cc1ccc2nc(-c3ccncc3)c(Nc3ccccc3)n2c1", "hERG current change (%, negative = inhibition) at 10uM": 0.405}, {"smiles": "COCc1nc2sc3c(c2c(=O)[nH]1)CCCC3", "hERG current change (%, negative = inhibition) at 10uM": 12.9}, {"smiles": "O/N=C/Cc1[nH]c2ccccc2c1-c1ccccc1", "hERG current change (%, negative = inhibition) at 10uM": 2.59}, {"smiles": "CCc1ccccc1NC(=O)CN1CCN(CC(=O)Nc2ccc(-c3ccccc3)cc2)CC1", "hERG current change (%, negative = inhibition) at 10uM": -53.3}, {"smiles": "COc1ccccc1CN=c1c([N+](=O)[O-])nn(-c2ccc3c(c2)OCCO3)n1O", "hERG current change (%, negative = inhibition) at 10uM": -7.21}, {"smiles": "COc1ccc(NS(=O)(=O)c2cc(NC(=O)c3cnccn3)ccc2N2CCCC2)cc1", "hERG current change (%, negative = inhibition) at 10uM": 0.988}, {"smiles": "CCOC(=O)c1sc(-c2ccc(C(F)(F)F)cc2)nc1O", "hERG current change (%, negative = inhibition) at 10uM": 12.8}, {"smiles": "N#CCc1nn(-c2ccccc2)c(N)c1C#N", "hERG current change (%, negative = inhibition) at 10uM": 5.46}, {"smiles": "NS(=O)(=O)c1ccc(CCNC(=O)CN2C(=O)COc3ccc(S(=O)(=O)N4CCCC4)cc32)cc1", "hERG current change (%, negative = inhibition) at 10uM": 10}]}]}
